Experimental data published in paper PMC9911399, “Two distinct binding modes provide the RNA-binding protein RbFox with extraordinary sequence specificity”.
Where a chain is given by its changes, count along the chain named. The list shows a part of the results.

T1: RBFOX1 RRM (Homo sapiens, UniProt Q9NWB1 109-208)
T1 sequence: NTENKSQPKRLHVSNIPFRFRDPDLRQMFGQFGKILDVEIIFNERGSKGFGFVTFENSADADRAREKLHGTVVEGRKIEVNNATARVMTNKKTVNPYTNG

B1: UUUAAUU (DNA:RNA)
RNA: GGGAGACCGGAAUUCAGAUUGUCCUUUAAUUUUAAAUCCCGUCGUAGCCACCA
DNA 1: CAATCTGAATTCCGGTCTCCC
DNA 2: TGGTGGCTACGACGGGATT
B2: AUGUGUG (DNA:RNA)
RNA: B1 RNA with U25A, U27G, A28U, A29G, U31G
DNA 1: CAATCTGAATTCCGGTCTCCC
DNA 2: TGGTGGCTACGACGGGATT
B3: UGGACCC (DNA:RNA)
RNA: B1 RNA with U26G, U27G, A29C, U30C, U31C
DNA 1: CAATCTGAATTCCGGTCTCCC
DNA 2: TGGTGGCTACGACGGGATT
B4: AAGGCUU (DNA:RNA)
RNA: B1 RNA with U25A, U26A, U27G, A28G, A29C
DNA 1: CAATCTGAATTCCGGTCTCCC
DNA 2: TGGTGGCTACGACGGGATT
B5: GUAGCGU (DNA:RNA)
RNA: B1 RNA with U25G, U27A, A28G, A29C, U30G
DNA 1: CAATCTGAATTCCGGTCTCCC
DNA 2: TGGTGGCTACGACGGGATT
B6: GAGUUAC (DNA:RNA)
RNA: GGGAGACCGGAAUUCAGAUUGUCCGAGUUACUUAAAUCCCGUCGUAGCCACCA
DNA 1: CAATCTGAATTCCGGTCTCCC
DNA 2: TGGTGGCTACGACGGGATT
B7: AAUCGCA (DNA:RNA)
RNA: B6 RNA with G25A, G27U, U28C, U29G, A30C, C31A
DNA 1: CAATCTGAATTCCGGTCTCCC
DNA 2: TGGTGGCTACGACGGGATT
B8: CCUCCAA (DNA:RNA)
RNA: B6 RNA with G25C, A26C, G27U, U28C, U29C, C31A
DNA 1: CAATCTGAATTCCGGTCTCCC
DNA 2: TGGTGGCTACGACGGGATT
B9: CGAGAAG (DNA:RNA)
RNA: B6 RNA with G25C, A26G, G27A, U28G, U29A, C31G
DNA 1: CAATCTGAATTCCGGTCTCCC
DNA 2: TGGTGGCTACGACGGGATT
B10: GACGGUU (DNA:RNA)
RNA: B6 RNA with G27C, U28G, U29G, A30U, C31U
DNA 1: CAATCTGAATTCCGGTCTCCC
DNA 2: TGGTGGCTACGACGGGATT
B11: UUACAAA (DNA:RNA)
RNA: B1 RNA with U27A, A28C, U30A, U31A
DNA 1: CAATCTGAATTCCGGTCTCCC
DNA 2: TGGTGGCTACGACGGGATT
B12: UCACUAC (DNA:RNA)
RNA: B6 RNA with G25U, A26C, G27A, U28C
DNA 1: CAATCTGAATTCCGGTCTCCC
DNA 2: TGGTGGCTACGACGGGATT
B13: AUAUCCC (DNA:RNA)
RNA: B6 RNA with G25A, A26U, G27A, U29C, A30C
DNA 1: CAATCTGAATTCCGGTCTCCC
DNA 2: TGGTGGCTACGACGGGATT
B14: CCGAUAA (DNA:RNA)
RNA: B6 RNA with G25C, A26C, U28A, C31A
DNA 1: CAATCTGAATTCCGGTCTCCC
DNA 2: TGGTGGCTACGACGGGATT
B15: UGAACUC (DNA:RNA)
RNA: B1 RNA with U26G, U27A, A29C, U31C
DNA 1: CAATCTGAATTCCGGTCTCCC
DNA 2: TGGTGGCTACGACGGGATT
B16: UUAGAUA (DNA:RNA)
RNA: B1 RNA with U27A, A28G, U31A
DNA 1: CAATCTGAATTCCGGTCTCCC
DNA 2: TGGTGGCTACGACGGGATT
B17: GUAGUCU (DNA:RNA)
RNA: B6 RNA with A26U, G27A, U28G, A30C, C31U
DNA 1: CAATCTGAATTCCGGTCTCCC
DNA 2: TGGTGGCTACGACGGGATT
B18: UCUCUAC (DNA:RNA)
RNA: B6 RNA with G25U, A26C, G27U, U28C
DNA 1: CAATCTGAATTCCGGTCTCCC
DNA 2: TGGTGGCTACGACGGGATT
B19: CUACUGG (DNA:RNA)
RNA: B6 RNA with G25C, A26U, G27A, U28C, A30G, C31G
DNA 1: CAATCTGAATTCCGGTCTCCC
DNA 2: TGGTGGCTACGACGGGATT
B20: ACAUGUA (DNA:RNA)
RNA: B6 RNA with G25A, A26C, G27A, U29G, A30U, C31A
DNA 1: CAATCTGAATTCCGGTCTCCC
DNA 2: TGGTGGCTACGACGGGATT
B21: CGAACUA (DNA:RNA)
RNA: B1 RNA with U25C, U26G, U27A, A29C, U31A
DNA 1: CAATCTGAATTCCGGTCTCCC
DNA 2: TGGTGGCTACGACGGGATT
B22: AUUGAGU (DNA:RNA)
RNA: B1 RNA with U25A, A28G, U30G
DNA 1: CAATCTGAATTCCGGTCTCCC
DNA 2: TGGTGGCTACGACGGGATT
B23: UAAUCUU (DNA:RNA)
RNA: B1 RNA with U26A, U27A, A28U, A29C
DNA 1: CAATCTGAATTCCGGTCTCCC
DNA 2: TGGTGGCTACGACGGGATT
B24: UACCAAG (DNA:RNA)
RNA: B6 RNA with G25U, G27C, U28C, U29A, C31G
DNA 1: CAATCTGAATTCCGGTCTCCC
DNA 2: TGGTGGCTACGACGGGATT
B25: UAUUAAC (DNA:RNA)
RNA: B6 RNA with G25U, G27U, U29A
DNA 1: CAATCTGAATTCCGGTCTCCC
DNA 2: TGGTGGCTACGACGGGATT
B26: AAUGAAU (DNA:RNA)
RNA: B1 RNA with U25A, U26A, A28G, U30A
DNA 1: CAATCTGAATTCCGGTCTCCC
DNA 2: TGGTGGCTACGACGGGATT
B27: UUCUGGU (DNA:RNA)
RNA: B1 RNA with U27C, A28U, A29G, U30G
DNA 1: CAATCTGAATTCCGGTCTCCC
DNA 2: TGGTGGCTACGACGGGATT
B28: GGGGAAU (DNA:RNA)
RNA: B6 RNA with A26G, U28G, U29A, C31U
DNA 1: CAATCTGAATTCCGGTCTCCC
DNA 2: TGGTGGCTACGACGGGATT
B29: AGCAGUG (DNA:RNA)
RNA: B1 RNA with U25A, U26G, U27C, A29G, U31G
DNA 1: CAATCTGAATTCCGGTCTCCC
DNA 2: TGGTGGCTACGACGGGATT
B30: UGGCCUC (DNA:RNA)
RNA: B6 RNA with G25U, A26G, U28C, U29C, A30U
DNA 1: CAATCTGAATTCCGGTCTCCC
DNA 2: TGGTGGCTACGACGGGATT
B31: AGAACAC (DNA:RNA)
RNA: B6 RNA with G25A, A26G, G27A, U28A, U29C
DNA 1: CAATCTGAATTCCGGTCTCCC
DNA 2: TGGTGGCTACGACGGGATT

Target: T1, RBFOX1 RRM
Assay: EMSA; HiTS-Eq, 1 nM pool, 10 min; buffer printed only for the single-RNA assays: 10 mM Tris pH 7.5, 150 mM NaCl, 3.4 mM EDTA, 0.001% NP-40, 30 C
Conditions: tags: His6 N-terminal (pET28a); label: 5' 32P
Summary of the method: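 Purified RbFox RRM, wild type or mutant, was incubated for 10 min in 50 µL with 1 nM of a 5′-radiolabelled RNA pool carrying 7 randomized nucleotides, whose flanks were annealed to DNA oligonucleotides, over a series of increasing protein concentrations. Unbound RNA was resolved on 8% native PAGE, cut out, reverse-transcribed, barcoded by PCR and sequenced on an Illumina HiSeq 2500. Relative association constants were derived from changes in read counts for each RNA species versus the control reaction and normalised to the cognate motif.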

Binder	binding signal
B1	0.00658 KA relative to UGCAUGU
B2	0.0208 KA relative to UGCAUGU
B3	0.022 KA relative to UGCAUGU
B4	0.00698 KA relative to UGCAUGU
B5	0.0174 KA relative to UGCAUGU
B6	0.0121 KA relative to UGCAUGU
B7	0.00618 KA relative to UGCAUGU
B8	0.00154 KA relative to UGCAUGU
B9	0.0122 KA relative to UGCAUGU
B10	0.0211 KA relative to UGCAUGU
B11	0.000873 KA relative to UGCAUGU
B12	0.000713 KA relative to UGCAUGU
B13	0.0036 KA relative to UGCAUGU
B14	0.00237 KA relative to UGCAUGU
B15	0.00633 KA relative to UGCAUGU
B16	0.00796 KA relative to UGCAUGU

Binder	binding signal
B17	0.0147 KA relative to UGCAUGU
B18	0.0026 KA relative to UGCAUGU
B19	0.0108 KA relative to UGCAUGU
B20	0.002 KA relative to UGCAUGU
B21	0.00269 KA relative to UGCAUGU
B22	0.0102 KA relative to UGCAUGU
B23	0.00684 KA relative to UGCAUGU
B24	0.00503 KA relative to UGCAUGU
B25	0.0111 KA relative to UGCAUGU
B26	0.0102 KA relative to UGCAUGU
B27	0.0132 KA relative to UGCAUGU
B28	0.0354 KA relative to UGCAUGU
B29	0.0135 KA relative to UGCAUGU
B30	0.0279 KA relative to UGCAUGU
B31	0.00173 KA relative to UGCAUGU
